Results taken from PubChem BioAssay AID686978 (National Center for Advancing Translational Sciences (NCATS), 2013).
“And” between values parts separate entries of the source, which are not always exact repeats. Identical values can stand only once. The campaign covered roughly 420,000 compounds. About 64,000 (15%) were called active. Inconclusive results, whose numbers are uncertain, are shown with a selection of clear calls. The call rests on the fitted dose curve; in most records, active means well fitted inhibition curve with a large enough effect; inconclusive means small, poorly fitted or top-dose-only effect; inactive means flat fitted curve, though single readings scatter. Potencies beside an inconclusive call are fits to weak or partial responses and may not hold up.

assay: qHTS for Inhibitors of human tyrosyl-DNA phosphodiesterase 1 (TDP1): qHTS in cells in absence of CPT; details: DT40 Tdp1-/- hTDP1 cells, no CPT, ATP luminescence, 48 h; activity change, negative = growth inhibition: at 46.2 µM (top of the series) unless noted; further: nearly all actives have a fitted effect of over 55% in size
Method in brief: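 Chicken DT40 Tdp1-/- cells stably complemented with human TDP1 were seeded at 400 cells/well with DMSO in place of 20 nM camptothecin. After compound pinning, cells grew at least 48 hr at 37 °C; viability read by CellTiter-Glo luminescence.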
On the % scale 0 is the no-effect control and ±100 the full control effect; potency means the concentration at half of the fitted maximal effect; tags describe the fitted curve by direction and shape.

Row | SMILES | Potency | activity change, negative = growth inhibition
1 | O=C(c1cccc2ccccc12)N1CCN=C1SCc1ccc([N+](=O)[O-])cc1 | inconclusive: 29.1 µM [inhibitor, single point] | –
2 | COc1cc(N)c(Cl)cc1C(=O)OCCCN1CCCCC1 | inactive | –
3 | COc1ccc(C(=O)Oc2c(OC)cc(C(=S)N3CCOCC3)cc2OC)cc1OC | inactive | –
4 | CC(=O)c1ccc(NC(=O)C2=CC(c3ccco3)=NS(=O)(=O)N2C)cc1 | inactive | –
5 | COc1cccc(NC2=CC(c3ccc(C(C)C)cc3)N(c3cccc(OC)c3)C2=O)c1 (stereo not given) | inconclusive: 29.1 µM [inhibitor, single point] | –
6 | Cc1c(Cl)cccc1-n1nnc(-c2nc(-c3ccc4c(c3)OCO4)no2)c1C | inconclusive: 25.9 µM [inhibitor, partial curve] | –
7 | COc1ccc(-c2nnc(SCC(=O)NC3CCCCC3)o2)cc1 | inconclusive: 20.6 µM [inhibitor, single point] | –
8 | COc1ccccc1CNc1ccnc(-c2ccccc2OC)n1 | inconclusive: 29.1 µM [inhibitor, single point] | –
9 | CCN(CC(=O)Nc1ccccc1C(F)(F)F)C(=O)c1ccc2c(=O)n3c(nc2c1)CCC3 | inactive | –
10 | O=C(NCC1CCCO1)/C(=C/c1ccc(Cl)cc1)NC(=O)c1ccccc1 (stereo not given) | inactive | –
11 | Cc1cccc(C(C)C)c1NC(=O)c1ccc(COc2ccc3c(C)cc(=O)oc3c2)cc1 | inconclusive: 23.1 µM [inhibitor, single point] | –
12 | O=C(NCc1ccco1)C(C(=O)c1ccccc1)n1ccccc1=O (stereo not given) | inconclusive: 25.9 µM [inhibitor, single point] | –
13 | COc1ccc(N2CCN(C(=O)CNC(=O)c3ccc(Br)o3)CC2)cc1 | inactive | –
14 | Cc1nc2ccc(NC(=O)COc3ccccc3[N+](=O)[O-])cc2s1 | – | inconclusive: -30.1% [inhibitor]
15 | C=CCNC(=O)COc1ccc(Br)cc1Cl | inconclusive: 29.1 µM [inhibitor, single point] | –
16 | O=C(COC(=O)c1cccc(Br)c1)Nc1cccc(S(=O)(=O)N2CCCCC2)c1 | inconclusive: 29.1 µM [inhibitor, single point] | –
17 | CC(=O)C[C@H]1c2cc(C(F)(F)F)ccc2S(=O)(=O)N1Cc1ccccc1 | inconclusive: 22.4 µM [inhibitor, single point] | –
18 | Cc1ccc(S(=O)(=O)N(C)Cc2ccc(C(=O)N/N=C3\CCCC(=O)C3)cc2)cc1 | inconclusive: 29.1 µM [inhibitor, single point] | –
19 | Cc1ccc(S(=O)(=O)CCC(=O)NCCC2=CCCCC2)cc1 | inactive | –
20 | COc1ccc(-c2cc(C(=O)Nc3ccc(NC(C)=O)cc3)[nH]n2)c(C)c1 | inactive | –
21 | COc1ccccc1NC(=O)CS(=O)(=O)c1cccc2nsnc12 | inconclusive: 16.4 µM [inhibitor, single point] | –
22 | CCCCn1nnnc1C(c1ccnc2ccccc12)N1CCN(C/C=C/c2ccccc2)CC1 (stereo not given) | active: 20.6 µM | –

Row | SMILES | Potency | activity change, negative = growth inhibition
23 | O=C(NCc1cccnc1)[C@@H]1CC=C[C@@H]2CCN(Cc3ccc(Cl)c(Cl)c3)C(=O)[C@@H]21 | inconclusive: 35.5 µM [inhibitor, single point] | –
24 | CC(C)c1ccc(NC2CCCN(C(=O)c3ccco3)C2)cc1 (stereo not given) | inconclusive: 23.1 µM [inhibitor, partial curve] | –
25 | COc1ccc(OC)c(NC(=O)COC(=O)c2nc(Cl)ccc2Cl)c1 | inactive | –
26 | O=C(NCCc1ccccn1)c1c(-c2ccsc2)sc2ccccc12 | inconclusive: 29.1 µM [inhibitor, partial curve, poor fit] | –
27 | Cc1nc(N)sc1Cc1ccc2c(c1)OCO2 | inconclusive: 23.1 µM [inhibitor, single point] | –
28 | Cc1c(C(=O)NCC2COCCO2)cnn1-c1ncc2c(n1)-c1ccccc1CC2 (stereo not given) | – | inconclusive: -32.7% [inhibitor]
29 | CC(=O)Nc1ccc(S(=O)(=O)N(C)c2ccc(OCCOc3cccc(C)c3)cc2)cc1 | inconclusive: 7.31 µM [inhibitor, partial curve] | –
30 | COc1ccc(CNC(=O)CN2C(=O)COc3ccc(S(=O)(=O)N4CCCCCC4)cc32)cc1 | inconclusive: 18.4 µM [inhibitor, single point] | –
31 | COC(=O)c1sccc1S(=O)(=O)N(CC(=O)Nc1cc(C)cc(C)c1)c1ccc(Cl)cc1 | inconclusive: 29.1 µM [inhibitor, single point] | –
32 | COc1ccc(-n2c(SCC(=O)NCc3ccccc3)nc3ccsc3c2=O)cc1 | inconclusive: 29.1 µM [inhibitor, single point] | –
33 | O=C(Nc1cccc(Cl)c1N1CCOCC1)c1ccc(Br)o1 | active: 10.3 µM | –
34 | CCCOc1ccc(F)cc1-c1cc(C(=O)Nc2ccc(OC)c(OC)c2)[nH]n1 | inconclusive: 18.4 µM [inhibitor, single point] | –
35 | C=C(C)C1CC=C(C)/C(=N/NC(=O)COc2ccc(Cl)cc2)C1 (stereo not given) | inconclusive: 29.1 µM [inhibitor, single point] | –
36 | CC(C)c1ccc(-c2c(NCCc3ccccc3)c(=O)c2=O)cc1 | inconclusive: 4.11 µM [inhibitor, full curve] | –
37 | O=C(Nc1ccc2c(c1)OCCO2)C(C1CC1)n1c(=O)c(-c2ccco2)nc2ccccc21 (stereo not given) | inactive | –
38 | CCOC(=O)c1c(C)[nH]c(C)c1C(=O)COC(=O)c1ccc(Cl)c(S(N)(=O)=O)c1 | inconclusive: 23.1 µM [inhibitor, single point] | –
39 | CCOC(=O)N1CCN(C(=O)C[C@@H]2C[C@@]3(C(=O)OC)CC(C)(C)CC=C3N(Cc3ccccc3)C2=O)CC1 | inconclusive: 23.1 µM [inhibitor, single point] | –
40 | CCn1cc(C(=O)NCC(OC)OC)c(=O)c2cc(S(=O)(=O)N(C)C3CCCCC3)ccc21 | inactive | –
41 | COc1ccccc1Cn1c(C)c(C(=O)NCc2ccco2)sc1=O | inconclusive: 18.4 µM [inhibitor, single point] | –
42 | O=C(N/N=C/c1cccc2nccnc12)c1ccccc1O | active: 3.26 µM | –
43 | Cc1ccc(C2Nc3ccccc3-n3c(-c4ccccc4)c4c(=O)n(C)c(=O)n(C)c4c32)cc1 (stereo not given) | inconclusive: 29.1 µM [inhibitor, single point] | –
44 | COc1ccccc1N1CCN(CC(=O)Nc2ccc(S(=O)(=O)N3CCCCCC3)cc2)CC1 | inconclusive: 25.9 µM [inhibitor, single point] | –

Row | SMILES | Potency | activity change, negative = growth inhibition
45 | CC1(C)OC(=O)C2=C(C[C@@H](C3CCCC3)O[C@H]2CCc2cccc(Cl)c2)O1 | inconclusive: 16.4 µM [inhibitor, partial curve, poor fit] | –
46 | CCCCc1ccc(NC(=S)NCc2cccnc2)cc1 | inconclusive: 18.4 µM [inhibitor, single point] | –
47 | O=C(c1ccc(C#Cc2ccccc2)o1)N1CCN(c2ccccn2)CC1 | inconclusive: 20.6 µM [inhibitor, partial curve, poor fit] | –
48 | Cc1cc2ccccc2n1CCNC(=O)Cc1cccc2ccccc12 | inconclusive: 29.1 µM [inhibitor, single point] | –
49 | COc1cccc(-c2nc(N(C)Cc3ccco3)c3ccccc3n2)c1 | inconclusive: 29.1 µM [inhibitor, single point] | –
50 | COc1ccc(NC(=O)c2nn(C)c3c2CSc2ccc(C)cc2-3)cc1OC | inconclusive: 29.1 µM [inhibitor, single point] | –
51 | Cc1ccc(CNS(=O)(=O)c2ccc(Br)s2)cc1 | inactive | –
52 | COc1ccc(NS(=O)(=O)c2cc(-c3nnnn3C)ccc2OC)cc1 | inactive | –
53 | CCOc1ccc2nc(SCC#N)c(C#N)cc2c1 | inconclusive: 8.2 µM [inhibitor, partial curve] | –
54 | COc1ccc(C(c2nnnn2C2CCCCC2)N2CCN(C/C=C/c3ccccc3)CC2)cc1 (stereo not given) | inconclusive: 20.6 µM [inhibitor, single point] | –
55 | COc1cccc(CNc2nc3cc(-c4csc5ccccc45)sc3c(=O)n2C)c1 | inconclusive: 29.1 µM [inhibitor, single point] | –
56 | CCOc1ccc(NC(=O)c2cc(Cl)nc3ccccc23)cc1 | active: 14.6 µM | –
57 | CC(/C=N/NC(=O)CSc1nc2ccccc2n1C)=C\c1ccco1 | inconclusive: 29.1 µM [inhibitor, single point] | –
58 | COCCCNC(=O)c1ccc(Cn2c(=O)c3ccccc3n(Cc3ccc(C)cc3)c2=O)cc1 | inconclusive: 13 µM [inhibitor, partial curve] and inconclusive: 18.4 µM [inhibitor, single point] | –
59 | CCN(c1cccc(C)c1)S(=O)(=O)c1ccc2c(c1)CCCN2C(C)=O | inconclusive: 16.4 µM [inhibitor, single point] | –
60 | O=C(Cn1c(=S)[nH]c2ccccc2c1=O)N1CCN(c2ccc(F)cc2)CC1 | inconclusive: 25.9 µM [inhibitor, partial curve, poor fit] | –
61 | c1ccc2oc(SCc3cn4ccsc4n3)nc2c1 | inconclusive: 22.4 µM [inhibitor, partial curve, poor fit] | –
62 | S=C(NCCC(c1ccccc1)c1ccccc1)Nc1cccc(Cl)c1 | active: 14.6 µM | –
63 | CCOC(=O)CNC(=O)CSc1nc2c(C)cccc2cc1CC | inconclusive: 16.4 µM [inhibitor, partial curve] | –
64 | CCOC(=O)c1ccc(NC(=O)CC2Nc3cc(C)c(C)cc3NC2=O)cc1 (stereo not given) | inconclusive: 20.6 µM [inhibitor, single point] | –
65 | CC1(CN2CCCC2)CCC(NC(=O)C(c2ccccc2)c2ccccc2)C(C)(C)O1 (stereo not given) | inconclusive: 29.1 µM [inhibitor, single point] | –
